The supplement of paper PMC4996465
Values joined by “and” are separate entries in the source; they are usually repeats but may differ in a detail not shown here. Identical values can stand only once. Viability of KB3-1 and Nalm-6 cells after 48 h of drug alone (CellTiter-Glo), 11 doses over about 4.5 log units. % of DMSO wells, lower = more cell loss; AC50 from the fitted curve, lower = more potent. No active / inactive call. Nalm-6 was screened in two runs. AC50 is listed only for well-fitted inhibitory curves. KB3-1 is a HeLa-derived carcinoma line, Nalm-6 a B-cell precursor leukaemia line.

What was measured:
KB3-1 [1] = assay: log AC50 of viability decrease (48 h) (log10 M); higher = less potent
Experimental: (§1)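 Eleven-dose screen of the NCATS MIPE 3 library on cells without co-treatment; CellTiter-Glo after 48 h. AC50 from the curve fit; only inhibitory curves of the better fit classes are listed.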

KB3-1 [2] = assay: viability (% of DMSO control); higher = more viable cells
Experimental: (§2)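 Eleven-dose screen of the NCATS MIPE 3 library on cells without co-treatment; CellTiter-Glo after 48 h, as % of DMSO wells.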

Nalm-6 [3] = assay: log AC50 of viability decrease (48 h) (log10 M); higher = less potent
Experimental: as §1

Nalm-6 [4] = assay: viability (% of DMSO control); higher = more viable cells
Experimental: as §2

Row | Structure (SMILES) | log AC50 of viability decrease (KB3-1 [1]) | viability (KB3-1 [2]; 0.00078 µM) | viability (KB3-1 [2]; 0.00234 µM) | viability (KB3-1 [2]; 0.00702 µM) | viability (KB3-1 [2]; 0.0211 µM) | viability (KB3-1 [2]; 0.0632 µM) | viability (KB3-1 [2]; 0.19 µM) | viability (KB3-1 [2]; 0.569 µM) | viability (KB3-1 [2]; 1.71 µM) | viability (KB3-1 [2]; 5.12 µM) | viability (KB3-1 [2]; 15.4 µM) | viability (KB3-1 [2]; 46.1 µM) | log AC50 of viability decrease (Nalm-6 [3]; run: 1) | log AC50 of viability decrease (Nalm-6 [3]; run: 2) | viability (Nalm-6 [4]; run: 1, 0.00078 µM) [%] | viability (Nalm-6 [4]; run: 1, 0.00234 µM) [%] | viability (Nalm-6 [4]; run: 1, 0.00702 µM) [%] | viability (Nalm-6 [4]; run: 1, 0.0211 µM) [%] | viability (Nalm-6 [4]; run: 1, 0.0632 µM) [%] | viability (Nalm-6 [4]; run: 1, 0.19 µM) [%] | viability (Nalm-6 [4]; run: 1, 0.569 µM) [%] | viability (Nalm-6 [4]; run: 1, 1.71 µM) [%] | viability (Nalm-6 [4]; run: 1, 5.12 µM) [%] | viability (Nalm-6 [4]; run: 1, 15.4 µM) [%] | viability (Nalm-6 [4]; run: 1, 46.1 µM) [%] | viability (Nalm-6 [4]; run: 2, 0.00078 µM) [%] | viability (Nalm-6 [4]; run: 2, 0.00234 µM) [%] | viability (Nalm-6 [4]; run: 2, 0.00702 µM) [%] | viability (Nalm-6 [4]; run: 2, 0.0211 µM) [%] | viability (Nalm-6 [4]; run: 2, 0.0632 µM) [%] | viability (Nalm-6 [4]; run: 2, 0.19 µM) [%] | viability (Nalm-6 [4]; run: 2, 0.569 µM) [%] | viability (Nalm-6 [4]; run: 2, 1.71 µM) [%] | viability (Nalm-6 [4]; run: 2, 5.12 µM) [%] | viability (Nalm-6 [4]; run: 2, 15.4 µM) [%] | viability (Nalm-6 [4]; run: 2, 46.1 µM) [%]
1 | O=C(NCCCNc1nc(Nc2cccc(NC(=O)N3CCCC3)c2)ncc1I)c1cccs1 [BX-795] | -4.68 and -4.63 | 102% and 99.5% | 103% and 97% | 99.4% and 96.5% | 102% and 94.5% | 100% and 103% | 98.1% and 94.2% | 80.3% and 69.4% | 83% and 77.6% | 80.2% and 78.3% | 63.1% and 72.4% | 2.86% and 3.79% |  |  |  |  |  |  |  |  |  |  |  |  |  |  |  |  |  |  |  |  |  |  |  | 
2 | COc1ccc(C(=O)c2c(C)n(CCN3CCOCC3)c3ccccc23)cc1 [Pravadoline] |  | 102% | 102% | 100% | 108% | 100% | 92.5% | 109% | 106% | 95.7% | 97.8% | 71.5% | -4.73 | -4.68 | 81 | 93.5 | 102 | 105 | 111 | 111 | 106 | 122 | 100 | 76.6 | 16.9 | 97.5 | 93.4 | 101 | 97.5 | 103 | 102 | 100 | 109 | 97.5 | 74.4 | 7.89
3 | CC(C)(C)c1cc(NC(=O)Nc2ccc(-c3cn4c(n3)sc3cc(OCCN5CCOCC5)ccc34)cc2)no1 [Quizartinib] |  | 96.4% | 110% | 103% | 99.1% | 99.5% | 90.2% | 95% | 100% | 91.9% | 91.6% | 61.5% | -6.08 | -6.23 | 89.7 | 91.6 | 101 | 109 | 103 | 102 | 71.1 | 32.1 | 26.9 | 26.4 | 7.54 | 109 | 110 | 107 | 111 | 107 | 104 | 62.2 | 22.3 | 14.5 | 13.2 | 5.62
4 | COc1cc(F)c(F)c(Nc2ccc(I)cc2F)c1NS(=O)(=O)C1(C[C@H](O)CO)CC1 [RDEA-119] |  | 95% | 95.2% | 102% | 99.3% | 101% | 101% | 99.2% | 105% | 103% | 101% | 32.6% | -4.68 |  | 110 | 113 | 111 | 114 | 113 | 117 | 117 | 114 | 103 | 102 | 69.4 | 100 | 106 | 105 | 104 | 102 | 107 | 105 | 103 | 95.6 | 95.4 | 28.1
5 | Nc1nc2ccc(OC(F)(F)F)cc2s1 [Riluzole] |  | 103% | 100% | 106% | 102% | 104% | 101% | 100% | 98.6% | 102% | 92.3% | 56.1% |  | -4.63 | 96.6 | 98 | 111 | 103 | 104 | 113 | 110 | 101 | 99 | 106 | 10.3 | 93 | 105 | 105 | 105 | 102 | 100 | 102 | 98.4 | 102 | 88.5 | 7.64
6 | CCCn1c(=O)c2[nH]c(C34CC5CC3C[C@@H](C5)C4)nc2n(CCC)c1=O [Rolofylline] |  | 95.2% | 97.2% | 99.3% | 100% | 102% | 98.7% | 102% | 81.6% | 93.2% | 94.3% | 59.5% | -4.83 | -4.78 | 89 | 96 | 95 | 95.8 | 102 | 98.4 | 104 | 109 | 96.3 | 76.6 | 59.7 | 94.5 | 99.7 | 94.7 | 96.9 | 98.8 | 101 | 106 | 109 | 81.8 | 70.3 | 43
7 | CNCc1ccc(-c2[nH]c3cc(F)cc4c3c2CCNC4=O)cc1 [Rucaparib] |  | 102% | 105% | 105% | 108% | 106% | 108% | 110% | 106% | 118% | 115% | 38.8% | -4.78 | -4.68 | 96.9 | 99.6 | 103 | 109 | 116 | 110 | 111 | 96.5 | 76.2 | 66.2 | 16.1 | 111 | 103 | 104 | 109 | 107 | 107 | 111 | 103 | 95.4 | 85.8 | 31.2
8 | N#CC[C@H](C1CCCC1)n1cc(-c2ncnc3[nH]ccc23)cn1 [Ruxolitinib] |  | 105% | 106% | 101% | 101% | 94.6% | 99.4% | 98.2% | 97.8% | 91.4% | 89.7% | 19.3% | -4.63 | -4.63 | 119 | 116 | 112 | 119 | 113 | 121 | 120 | 114 | 110 | 100 | 36.2 | 102 | 105 | 111 | 106 | 113 | 111 | 108 | 101 | 107 | 90.2 | 25.5
9 | CCOc1cc(C(=O)Nc2ccc(Cl)c(-c3nc4ccccc4[nH]3)c2)cc(OCC)c1OCC [SANT-2] |  | 97.3% | 97.4% | 90% | 94.1% | 90.7% | 89.3% | 98.9% | 96.3% | 91.5% | 85.7% | 70.1% | -4.98 | -4.83 | 84.8 | 103 | 103 | 104 | 107 | 108 | 107 | 99.4 | 86.8 | 61.5 | 45.2 | 104 | 96.9 | 109 | 109 | 102 | 109 | 109 | 107 | 88.9 | 71.3 | 43.7
10 | O=C(Nc1cccc(Cl)c1)Nc1ncc(CCNc2ncnc3ccsc23)s1 [SNS-314] |  | 99% | 99.3% | 93.7% | 89.9% | 88.7% | 87.2% | 89.7% | 88.5% | 92% | 82% | 13.3% | -4.68 | -4.53 | 65.1 | 59 | 63.7 | 63.2 | 65.8 | 55.9 | 59.6 | 54.4 | 50.8 | 45.2 | 1.77 | 92 | 83.9 | 78.2 | 79.5 | 78.7 | 66.1 | 66.9 | 53.3 | 62.1 | 57 | 1.89
11 | O=C(Nc1ccccc1-c1cn2c(CN3CCNCC3)csc2n1)c1cnc2ccccc2n1 [SRT1720] |  | 102% | 105% | 106% | 110% | 109% | 108% | 106% | 112% | 111% | 98.4% | 2% |  | -4.58 | 116 | 114 | 121 | 117 | 110 | 114 | 114 | 108 | 109 | 106 | 0.857 | 110 | 109 | 109 | 103 | 107 | 110 | 105 | 103 | 103 | 96.3 | 0.568
12 | CN1CCN(CCOc2cc(OC3CCOCC3)c3c(Nc4c(Cl)ccc5c4OCO5)ncnc3c2)CC1 [Saracatinib] |  | 104% | 105% | 104% | 98.8% | 106% | 107% | 102% | 105% | 107% | 109% | 75% | -4.73 | -4.68 | 124 | 120 | 119 | 121 | 120 | 118 | 106 | 94.3 | 88.8 | 79.3 | 21.1 | 107 | 106 | 106 | 101 | 108 | 109 | 105 | 92.7 | 80.9 | 81.5 | 21.9
13 | COc1nc(-c2ccc3c(c2)OCO3)n(-c2ccc(NC(=O)CSc3ccccc3)cc2)n1 [Secin H3] |  | 106% | 103% | 106% | 99.2% | 101% | 105% | 102% | 105% | 93.6% | 99.1% | 84.8% | -4.63 | -4.68 | 119 | 114 | 108 | 119 | 121 | 109 | 108 | 108 | 103 | 98.2 | 67.3 | 108 | 99.3 | 107 | 89.2 | 102 | 103 | 98.5 | 101 | 98.7 | 79.8 | 20.3
14 | CN1C(=O)/C(=C(NC2=CC=C(I)C=C2F)\C3=C1\N=C/N(C[C@@H](O)CO)C3=O)F [TAK-733] |  | 97.5% | 98% | 94.7% | 104% | 99.1% | 96.8% | 94.7% | 92% | 88.5% | 94.7% | 53.7% | -4.63 | -4.63 | 102 | 103 | 105 | 99.8 | 99.4 | 92.1 | 90.9 | 89.1 | 89.5 | 85.6 | 38.9 | 100 | 94.1 | 90.6 | 95.9 | 95.6 | 86.1 | 88.4 | 90 | 87.8 | 75.9 | 0.817
15 | CC/C(=C(\c1ccccc1)c1ccc(OCCN(C)C)cc1)c1ccccc1 [Tamoxifen] |  | 108% | 107% | 106% | 104% | 106% | 108% | 103% | 101% | 89.4% | 96.7% | 2.37% | -4.68 | -4.63 | 121 | 125 | 122 | 122 | 118 | 128 | 126 | 115 | 103 | 94.3 | -2.23 | 106 | 108 | 111 | 111 | 107 | 109 | 110 | 97.5 | 103 | 90.3 | -1.27
